# Test results from the RNAGym collection of RNA variant scans (doi:10.7554/elife.90254).
# The source gives no read counts; variants with many changes may rest on few reads.
# B1: OR4K15 (parent)
# chain: GUUAACGGUCAUAGGCCAUGGAAACUAGGAGCACCAUUUCGCUGCCAGUGAAGAAAUGAACAAAGAAAAUCUGGGCCAGGCAGGCAUCAAAAGAAAUAGUCUUGCGCUCAACCAGAAAGUCUGUAAUCAUUUUAAGGGUA
# Variants of: B1
# Test: self-cleavage, relative activity (ratio to wild type); higher = more cleavage; in vitro, sequencing; the parent is a self-cleaving ribozyme
row,Variant,self-cleavage
1,U19A A24G A60G C61U A66G U103C,0.76
2,U43A A60G A90G A92G,0.83
3,A62C A68G A69G A92G A98G,0.22
4,U3C A56G U57C U87C,0.73
5,A55G G65U A110G,0.09
6,A68C A110U A111G A116G,0.02
7,C6U U72C A95G A140G,0.9
8,A64G U97C A135U,1.5
9,A22G A23G A63G A89U A91G G104A G123A,0.02
10,A18G A51G U139C,0.33
11,A22G U57A A86G,0.9
12,A23G A63G A67G,1.22
13,U2A A18U A69G,1.31
14,U26A A55G A91G A116G U131C,0.39
15,A24G A33G U131C,0.92
16,U87C A92G U130C,0.17
17,A51U A82G U87C U100C A110C,0.16
18,U19C A24G A110G,0.05
19,U9A A23G C34A A67U A69G U87C,0.7
20,A13U U57A A68U,2.25
21,A64G A67G U72C A90G,0.16

row,Variant,self-cleavage
1,A22G A66G A91G A94G U131C,0.79
2,U9C A36G A86C,0.21
3,U19A A51U A78G,0.2
4,U39A A68G G83U,0.99
5,G31C U70C A94G,1.42
6,C17A A18G U72A A86G A95G A117C,0.06
7,U2A A68G U70C A82G A90G A110G G115A,0.02
8,U9C A18U U122A,1.55
9,A69G C121U A129G,1.56
10,U43C A68G U127C,1.07
11,U3C U57C U132C,0.91
12,U2C U38C U49C,0.94
13,G28U A96G A110G U120A,0.22
14,U19C A91G U122C U127C,0.29
15,A68G A82G U132C,0.97
16,U3G U37C U38C,0.69
17,U38A A54U A56G U72C,0.3
18,A24G A69G U124A,1.13
19,U3C A69G A82G,0.51
20,A11G A78G A135U,0.34
21,A30U A64G A94G A110G U130C,0.16

row,Variant,self-cleavage
1,U19C A69U A92G U131C,1.6
2,U2A A55G U103C U122C,0.47
3,A5G A47G A92G A125G,0.28
4,A24G U49C U57G U97C,0.93
5,A13U U43C A67G A82G,0.49
6,U19A A96G U108A A110G,0.03
7,A36G U97A A110G A129G,0.02
8,A47G U57C U100C,1.26
9,A5G G74U C77U,0.24
10,A63G A118U U132C,0.26
11,A27G A36U A56G A86G U108C,0
12,A22U U43C A47G A68G U100C U108A,0.03
13,A51G A62G A116G,0.47
14,A18U A24G A116G,0.6
15,U19C A92G A118G,0.95
16,U37C G48A U87C,0.7
17,A33G A78G U100C,0.25
18,A30G A91G A98G,0.52
19,U12A C45U A66G U139C,1.72
20,A24C U43A C76U A92G U100C,0.05
21,U37C A54G U87C A96C,0.93

row,Variant,self-cleavage
1,A55G A82G U87A U102C,0.68
2,U3C A5G U38C A78U A90G,0.33
3,U2C A11G A129U,1.25
4,U49A A51G U72C A95G,0.66
5,A22G A47G A63G,1.52
6,A30G U43C A68G A86G A89U,0.82
7,U87C A92G A95G C113U U124A U130C,0
8,A52G A78G G119A,0.34
9,U49A A54G G74A,0.19
10,U9G A27G A60G,0.57
11,A5G U38C A64U A96G U108C,0.04
12,A18C A23G U49C G106U A117G,0
13,A4G G31C A51U A59G,1.67
14,C25A U39C A62G,2.02
15,U100C A110G U130C,0.13
16,A89G A114C A140G,0.01
17,U26A A33G U122C,0.32
18,U9C U19C A96U,0.98
19,A24C A60G U103A U131C,1.35
20,U19C U37C U131C,1.64
21,U37C U57A A82G U87A U122C A140G,0.12
